Experimental data taken from the supplement of paper PMC10126150.
Values marked as one replicate rest on one cluster of the flow cell; about a third of the high ones do not repeat.

Test system: ATP
Test: switch fluorescence ratio, 500 uM ATP over buffer (Cy3 cluster intensity, sum of 5 cycles each) (fold (ratio)); higher = stronger signal-on switching upon ATP binding; sequences stand for … in TCGTCGGCAGCGTCAGATGTGTATAAGAGACAGTTTTTTTTTTTTTTTTTTTTTTTTT…TC
Conditions: aptamer strand: ATP DNA aptamer (quencher-CACCTGGGGGAGTATTGCGGAGGAAGG + anchor), 100 nM annealed; ATP concentration: 500 uM; one replicate
Outline: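 Exposure to 500 uM ATP lasted 15 min at 22 °C before imaging, and a selection-buffer image was taken beforehand, for Cy3-labelled switching-strand clusters on a modified Illumina MiSeq flow-cell annealed to 100 nM quencher-labelled ATP aptamer. Five buffer/ATP cycles were run with NaOH stripping and re-annealing between them. The fluorescence ratio per cluster is summed target-cycle over summed buffer-cycle Cy3 intensity, averaged per switch-domain sequence. Clusters outside 100-1000 RFU were excluded.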

Row | Sequence | switch fluorescence ratio
1 | GCGGTCCCTT | 1.01
2 | GCGGTGCTCA | 1.13
3 | GCGGTGGGAG | 0.987
4 | GCGGTGTTGT | 1.02
5 | GCGGTTATCT | 1
6 | GCGTAAAAAT | 0.998
7 | GCGTACAAGT | 0.985
8 | GCGTACTAAT | 1.02
9 | GCGTAGATGT | 1.01
10 | GCGTATAACA | 0.98
11 | GCGTATCGTG | 0.998
12 | GCGTATTAAA | 1
13 | GCGTCACTCC | 1.75
14 | GCGTCAGCTT | 0.982
15 | GCGTCCAGTC | 1.07
16 | GCGTCCCTTT | 0.971
17 | GCGTCCGCTC | 1.77
18 | GCGTCCTATC | 1.04
19 | GCGTCGACCA | 0.979
20 | GCGTCGCGGG | 0.995
21 | GCGTCTAGCT | 1.01
22 | GCGTCTCCAT | 1
23 | GCGTGAGTTT | 1.09
24 | GCGTGATGGC | 1.07
25 | GCGTGCACGG | 1
26 | GCGTGTAACA | 1.02

Row | Sequence | switch fluorescence ratio
27 | GCGTTTGGTC | 1.01
28 | GCTAAAGACG | 1.01
29 | GCTAAAGGCT | 0.975
30 | GCTAAAGTGA | 1.01
31 | GCTAACGGAC | 1.33
32 | GCTAAGAAGT | 0.973
33 | GCTAAGGGGA | 0.966
34 | GCTAATTAGT | 0.943
35 | GCTACACGTT | 1.04
36 | GCTACCGCCG | 1.2
37 | GCTACCGGGA | 1
38 | GCTACGTATT | 1.2
39 | GCTACGTCTC | 1.04
40 | GCTAGAGAGC | 0.983
41 | GCTAGAGGCG | 1.01
42 | GCTAGCAATT | 0.98
43 | GCTAGCGGCC | 0.99
44 | GCTAGGAGGG | 0.963
45 | GCTAGGCCCG | 0.939
46 | GCTAGTAGAT | 1.02
47 | GCTAGTATTG | 0.993
48 | GCTAGTCGGT | 0.98
49 | GCTAGTTAAT | 1
50 | GCTATAGCGG | 0.996
51 | GCTATATTAT | 0.98
52 | GCTATGGCCA | 1

Row | Sequence | switch fluorescence ratio
53 | GCTATGGCGT | 1.02
54 | GCTATTGTGG | 0.972
55 | GCTCAAAATG | 1.05
56 | GCTCAAATGT | 1.01
57 | GCTCAAGGGA | 1.05
58 | GCTCAGAGGG | 1
59 | GCTCCAACC | 1.22
60 | GCTCCATGGC | 1.1
61 | GCTCCGAATG | 4.97
62 | GCTCCGAGAA | 3.79
63 | GCTCCTCGGC | 1.19
64 | GCTCGACTAG | 1.03
65 | GCTCGAGCCA | 1.01
66 | GCTCGAGCTG | 0.994
67 | GCTCGAGTTC | 1.01
68 | GCTCGCTGCG | 0.981
69 | GCTCGGAAGC | 1.04
70 | GCTCGGCCCA | 1.01
71 | GCTCGTCAC | 0.978
72 | GCTCTAAGA | 1.08
73 | GCTCTAGTAG | 1.01
74 | GCTCTCTATG | 0.978
75 | GCTCTGAGGT | 1.01
76 | GCTCTTGATC | 1.01
77 | GCTCTTGTC | 0.992
78 | GCTCTTTCTG | 1.03

Row | Sequence | switch fluorescence ratio
79 | GCTGAATGAC | 1.05
80 | GCTGACGATA | 1.12
81 | GCTGACGGGG | 0.998
82 | GCTGACTACG | 1.04
83 | GCTGAGGGGT | 1.11
84 | GCTGAGGTGC | 1.03
85 | GCTGATCATT | 0.981
86 | GCTGATTAGG | 1.03
87 | GCTGCGGTA | 1.03
88 | GCTGCTGGAG | 1.08
89 | GCTGCTTTGA | 1.02
90 | GCTGGACCCA | 0.974
91 | GCTGGAGAGG | 1.06
92 | GCTGGGCCTT | 0.977
93 | GCTGGGGAGT | 1.02
94 | GCTGGGTGGC | 0.939
95 | GCTGGGTT | 0.968
96 | GCTGGTACGG | 1.04
97 | GCTGGTTTGC | 0.991
98 | GCTGTACATA | 1.04
99 | GCTGTATTGC | 0.955
100 | GCTGTCAATG | 0.99
101 | GCTGTCGGCA | 1
102 | GCTGTCTTTG | 0.975
103 | GCTTAAAACT | 1.02
104 | GCTTAAAGAT | 1.13

Row | Sequence | switch fluorescence ratio
105 | GCTTAACTAG | 1.01
106 | GCTTAAGCCA | 1
107 | GCTTAAGTGC | 0.986
108 | GCTTAGATAT | 1.01
109 | GCTTAGGGCC | 1.01
110 | GCTTATTTGC | 1.03
111 | GCTTATTTTT | 1.04
112 | GCTTCATTTG | 1
113 | GCTTCCAGTC | 1.02
114 | GCTTCCGTCA | 1.12
115 | GCTTCGAGAG | 1.01
116 | GCTTCGGCTC | 1.02
117 | GCTTCTTACA | 0.982
118 | GCTTCTTTCG | 0.966
119 | GCTTGAATAC | 1.07
120 | GCTTGACCCA | 1.03
121 | GCTTGAGTCC | 1.01
122 | GCTTGATTAC | 0.988
123 | GCTTGCACGG | 0.971
124 | GCTTGGAAC | 0.952
125 | GCTTGGCTCA | 0.989
126 | GCTTGGGTTT | 1.01
127 | GCTTGTGTAT | 1.04
128 | GCTTTACGAT | 1.13
129 | GCTTTACGGC | 1.01
130 | GCTTTAGCGG | 0.977

Row | Sequence | switch fluorescence ratio
131 | GCTTTAGGAC | 1.03
132 | GCTTTATAAT | 0.975
133 | GCTTTCGTGT | 0.985
134 | GCTTTGCGGC | 1.02
135 | GCTTTGGGCG | 1.02
136 | GCTTTTCGTT | 0.981
137 | GGAAAAACCG | 1.02
138 | GGAAAAACTT | 1.05
139 | GGAAAAGTAC | 1.45
140 | GGAAAATTGT | 1.03
141 | GGAAACAGCA | 1.03
142 | GGAAAGGTAC | 1.07
143 | GGAAAGTCTG | 1.01
144 | GGAAATGGTA | 0.987
145 | GGAACACGGG | 1
146 | GGAACCAAAT | 0.998
147 | GGAACCTAAT | 1.02
148 | GGAACGTGCA | 0.918
149 | GGAACTCGTG | 0.982
150 | GGAACTGATG | 1.04
151 | GGAACTTAAT | 1.01
152 | GGAACTTTAA | 1.03
153 | GGAAGAAAGA | 0.995
